Laboratory results as given in article PMC4336329 (PLoS ONE, 2015).
In all, about 310,000 compounds went through this assay and about 2,200 (0.71%) showed an effect of 50% or more. The effect is printed as a negative number. The list shows a part of the results.

biological target: human ether-à-go-go-related gene (hERG) potassium channel (human, UniProt Q12809); assay: primary screen, population patch clamp on CHO cells stably expressing hERG
Sequence (Q12809 whole entry, looked up): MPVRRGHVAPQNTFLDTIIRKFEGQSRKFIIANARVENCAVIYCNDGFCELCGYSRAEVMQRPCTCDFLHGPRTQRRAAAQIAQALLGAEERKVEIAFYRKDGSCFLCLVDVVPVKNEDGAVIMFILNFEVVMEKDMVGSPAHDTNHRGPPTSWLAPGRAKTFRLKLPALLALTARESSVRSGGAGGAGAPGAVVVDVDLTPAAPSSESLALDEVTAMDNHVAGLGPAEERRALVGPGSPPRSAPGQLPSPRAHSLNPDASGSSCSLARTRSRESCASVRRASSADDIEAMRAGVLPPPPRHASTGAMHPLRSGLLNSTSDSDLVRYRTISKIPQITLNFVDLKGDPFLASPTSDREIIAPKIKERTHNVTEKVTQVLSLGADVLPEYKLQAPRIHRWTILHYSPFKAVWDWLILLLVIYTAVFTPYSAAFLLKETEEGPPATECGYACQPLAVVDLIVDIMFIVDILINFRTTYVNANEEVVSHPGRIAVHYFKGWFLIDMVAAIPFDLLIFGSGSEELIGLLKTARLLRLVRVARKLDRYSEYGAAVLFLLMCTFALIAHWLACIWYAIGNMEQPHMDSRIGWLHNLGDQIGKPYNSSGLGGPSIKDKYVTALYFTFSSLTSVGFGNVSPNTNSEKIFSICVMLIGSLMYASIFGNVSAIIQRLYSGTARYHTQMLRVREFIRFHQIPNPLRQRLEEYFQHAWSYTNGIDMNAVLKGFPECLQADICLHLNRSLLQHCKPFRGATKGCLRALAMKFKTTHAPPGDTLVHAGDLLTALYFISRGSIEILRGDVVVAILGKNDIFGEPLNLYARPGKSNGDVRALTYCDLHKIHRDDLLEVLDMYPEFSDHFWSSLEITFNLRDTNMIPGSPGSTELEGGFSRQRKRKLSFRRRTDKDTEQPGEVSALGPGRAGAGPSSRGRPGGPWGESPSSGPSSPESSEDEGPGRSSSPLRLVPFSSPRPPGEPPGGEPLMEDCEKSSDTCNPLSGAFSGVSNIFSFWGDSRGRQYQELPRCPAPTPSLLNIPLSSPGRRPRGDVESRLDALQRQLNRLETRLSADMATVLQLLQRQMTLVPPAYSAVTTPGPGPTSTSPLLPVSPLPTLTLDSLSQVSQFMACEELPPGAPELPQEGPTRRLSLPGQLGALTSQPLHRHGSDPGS

Row | SMILES | hERG current change (%, negative = inhibition) at 1uM [%]
1 | COc1ccc(NC(=O)C(=O)c2cn(CC(=O)N3CCCC3)c3ccccc23)cc1OC | 6.63
2 | CN(CC(=O)Nc1ccc(Cl)cc1)C(=O)c1ccc(NS(=O)(=O)c2ccc3[nH]c(=O)[nH]c3c2)cc1 | 2.09
3 | CCN(CC)CCN=Cc1c(O)n(Cc2ccccc2)c(=O)[nH]c1=O [26665338] | -11.8
4 | CC(=O)c1ccc(N2CCN(C(=O)COc3ccc4c(c3)CCC4)CC2)cc1 | -7.88
5 | COc1ccc(N2CC(C(=O)Nc3ccc(F)cc3F)CC2=O)cc1 (stereo not drawn) | 5.59
6 | Cc1cccc(C(C)C)c1NC(=O)CN(C)Cc1cccc(F)c1 | 10.3
7 | O=C(NCCOc1ccc(F)cc1)C1CCC(=O)N(CCCN2CCOCC2)C1 (stereo not drawn) | 15
8 | COc1ccc(CN2CC(=O)N(c3ccc(C)cc3C)C2=S)cc1OC | 8.87
9 | Nc1c(NC2CCCCC2)c2ccccc2oc1=O | 5.06
10 | CC1CCCCN1CC(=O)c1c[nH]c2ccccc12 (stereo not drawn) | 9.55
11 | COc1ccc(OC)c(NC(=O)NCCc2cccc(Cl)c2)c1 | 10.1
12 | Cc1cc(NC(=O)c2cccc(S(=O)(=O)N3CCOCC3)c2)c2ccccc2n1 | 2.12
13 | CC(C)CCn1c(=O)c2sccc2n2c(CCCC(=O)N3CCN(c4ccccn4)CC3)nnc12 | -44
14 | N#Cc1ccc(Oc2cccnc2)cc1C#N | 6.45
15 | NC(=O)c1c(NC(=O)c2cccnc2)sc2c1CCCCC2 | 11.6
16 | CCc1ccccc1N(C)S(=O)(=O)c1ccc2[nH]cc(C(=O)O)c(=O)c2c1 | 9.01
17 | Clc1ccc(CNc2nnnn2-c2ccccc2)c(Cl)c1 | 11.3
18 | CCOC(=O)C1=C(C)NC(=O)NC1c1ccccc1 (stereo not drawn) | 9.26
19 | Cc1ccc(C(=O)NNC(=O)C2CCCN(c3ncccn3)C2)cc1 (stereo not drawn) | 11.8
20 | CCN(C(=O)CCS(=O)(=O)c1ccc2c(c1)oc(=O)n2C)c1ccc(OC)cc1 | 1.64
21 | CC(Sc1n[nH]c(-c2ccccc2)n1)C(=O)c1c(N)n(C)c(=O)n(C)c1=O (stereo not drawn) | 12.1
22 | COCCNC(=O)c1ccc2c(c1)nc(C)n2-c1cccc(F)c1 | 3.17
23 | c1ccc(Cc2nnc(Sc3ccccc3)c3ccccc23)cc1 | 8.59
24 | COC(=O)[C@@H]1C[C@H]1[C@@H](NC(=O)c1cc(C)on1)c1ccccc1 | 7.01
25 | O=C1CC(NCc2ccc3c(c2)OCO3)C(=O)N1CCc1ccccc1 (stereo not drawn) | -4.52
26 | COCCCn1cc(C(=O)c2cc(OC)ccc2OCC(=O)Nc2cc(C)on2)cc(C#N)c1=O | -9.21
27 | COc1ccc(C2=NCC(CSc3nnc(-c4ccc5c(c4)OCO5)o3)S2)cc1 (stereo not drawn) | 12.2

Row | SMILES | hERG current change (%, negative = inhibition) at 1uM [%]
28 | O=C(Nn1cnnc1)C1Cc2ccccc2CN1S(=O)(=O)c1ccc(F)cc1 (stereo not drawn) | 6.16
29 | Cc1cc2ccccc2n1CCNCc1c(C(=O)N2CCOCC2)nc2ccccn12 | 9.42
30 | CCCNC(=O)CCC(NS(=O)(=O)c1ccc(C)cc1)C(=O)NCCC (stereo not drawn) | 7.66
31 | COc1cccc(Nc2c([N+](=O)[O-])cncc2[N+](=O)[O-])c1 | 9.39
32 | Cl.Cn1nnnc1SCCNCc1cccc2ccccc12 | -3.01
33 | O=C(COC(=O)c1ccncc1)Nc1cccc(Cl)c1 | 3.85
34 | Cc1nc(C)c(C(=O)C2=C(O)C(=O)N(CCCn3ccnc3)C2c2ccc(Cl)cc2)s1 (stereo not drawn) | 9.51
35 | COC(=O)c1ccc(/C=N/NC(=O)C(=O)NCC2CCCO2)cc1 (stereo not drawn) | 9.26
36 | O=C(O)C1Cc2ccccc2CN1S(=O)(=O)/C=C/c1ccccc1 (stereo not drawn) | 11.1
37 | COc1ccc(OC)c(NC(=O)CSc2nc(=O)n(CCN3CCOCC3)c3c2CCCC3)c1 | 7.85
38 | Cc1ccc(S(=O)(=O)N2CCN(Cc3cc(C(C)(C)C)ccc3O)CC2)cc1 | 15.2
39 | CN1CCN(CC(=O)N2c3ccc(S(=O)(=O)NCCNC(=O)OC(C)(C)C)cc3C(=O)Nc3cccnc32)CC1 | 4.86
40 | CCN(CC)S(=O)(=O)c1ccc(NC2=NS(=O)(=O)c3ccccc32)cc1 | -8.13
41 | COCCN1CN(S(=O)(=O)c2ccccc2)c2nc3ccccc3nc21 | 5.35
42 | CCc1c(O)nc(SCC(=O)Nc2ccccc2)n(C(C)CC)c1=O (stereo not drawn) | 5.08
43 | COc1cccc(CNC(=O)CSCc2cnn(-c3ccccc3)c2-n2cccc2)c1OC | -12.8
44 | CC1CCC2(CC1)NC(=O)N(CC(=O)NC(=O)Nc1ccc3c(c1)OCCO3)C2=O (stereo not drawn) | -2.28
45 | N#CCC(=O)N/N=C/c1cc(-c2ccccc2)n(-c2ccc(Cl)cc2)c1-c1ccccc1 | 9.32
46 | Cc1cc(C)c(S(=O)(=O)c2ccccc2)c(OC(=O)c2c(Cl)cccc2Cl)n1 | 10.5
47 | O=C(CNc1n[nH]c(=O)[nH]c1=O)N/N=C/c1cccnc1 | -4.84
48 | FC(F)(F)c1ccnc(Sc2n[nH]c(C(F)(F)F)n2)c1 | 9.77
49 | O=C(CC1C(=O)NCCN1Cc1c(F)cccc1Cl)NCCCOc1cccnc1 (stereo not drawn) | 29.8
50 | O=C(CCc1nnc2n(Cc3ccccc3)c(=O)c3ccccc3n12)NCCN1CCOCC1 | 3.25
51 | O=C(COC(=O)COc1ccc(Cl)cc1Cl)Nc1cccnc1Cl | 15.5
52 | O=C(Oc1ccc2ccccc2c1)c1ccccc1 | -8.2
53 | O=C(O)c1ccccc1C(=O)Nc1ccc(S(=O)(=O)Nc2nccs2)cc1 | 7.39
54 | COc1ccc([C@@H]2COc3c(ccc4c3C=CC(C)(C)O4)C2)c(OC)c1 | 16.7
